Laboratory results reported in article PMC7819943, “Rice protein-binding microarrays: a tool to detect cis-acting elements near promoter regions in rice”.
The other results are listed elsewhere or left out.

target: T1, OsWOX13 (Oryza sativa, UniProt Q5QMM3 1-267); assay: protein-binding microarray (RPBM); PBS, 2% BSA, 51.3 ng/ul salmon testes DNA, 50 uM zinc acetate, 200 nM TF, 25 C, 1 h; high values mean tight binding; details: protein: recombinant; tags: N-terminal polyhistidine and DsRed monomer fusion (pET32a); label: CyDye5-dUTP incorporated in the synthesized complementary strand; 3' TTTTT single-stranded linker to array surface; dsDNA, one strand shown
T1 sequence: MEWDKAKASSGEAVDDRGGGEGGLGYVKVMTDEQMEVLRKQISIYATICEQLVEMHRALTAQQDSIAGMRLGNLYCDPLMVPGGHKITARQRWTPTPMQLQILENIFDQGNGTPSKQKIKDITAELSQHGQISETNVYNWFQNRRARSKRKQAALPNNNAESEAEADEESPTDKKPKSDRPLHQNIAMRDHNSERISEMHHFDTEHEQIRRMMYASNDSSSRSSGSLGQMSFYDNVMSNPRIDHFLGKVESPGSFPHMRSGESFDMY
In short: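 Ni–NTA purification followed expression in E. coli BL21-CodonPlus of transcription factors fused N-terminally to a polyhistidine tag and DsRed. At 200 nM in PBS with 2% BSA, salmon testes DNA and 50 µM zinc acetate, the protein was incubated for 1 h at 25 °C with a custom Agilent array that had been primer-extended with Cy5-dUTP and blocked with 2% BSA. After washing, the array was read on an Axon 4000B scanner. The binding signal is per-feature fluorescence intensity in arbitrary units.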

First: GTCTAGAGGTTAATTTGCACTCATCCAATAATTTAGAGGGCGGAGTCACCTAGTGCAG
Second: TTTAATTAATCATGTGTTATCGAGCTTCTTAATTTTGCATCGGAGTCACCTAGTGCAG
The binding signal of the first is lower: 7060 fluorescence intensity (a.u.) for the first, 31100 fluorescence intensity (a.u.) for the second.

Going from “TGGCATAATTTTGCTTATTGATAGTTCATTTGGGCATGCCCGGAGTCACCTAGTGCAG” to “TTAACCAAAATTTTAATTTTAATTTTGACGTGAACTAAACCGGAGTCACCTAGTGCAG”, the binding signal falls from 23100 fluorescence intensity (a.u.) to 13100 fluorescence intensity (a.u.).

First: TACTTAAATTACCAAATTCGGTCGTTAACACCAACACTCTCGGAGTCACCTAGTGCAG
Second: GTGCTGTATGTTGATTATATACAGGTTGAGTGCAACCTGCCGGAGTCACCTAGTGCAG
The binding signal of the first is higher: 15000 fluorescence intensity (a.u.) for the first, 3580 fluorescence intensity (a.u.) for the second.

First: ATATCACGTGATACTTGATAGAATCACGTGATATCACCCCCGGAGTCACCTAGTGCAG
Second: GTTTTGTCAATTAAATTGTACTCAACTGCCAAGTTGATGTCGGAGTCACCTAGTGCAG
The binding signal of the first is lower: 3390 fluorescence intensity (a.u.) for the first, 31700 fluorescence intensity (a.u.) for the second.

Compared with “TCCCCTCAATCAATCAAGCTTAAGCTAAGCTGGGCGCGACCGGAGTCACCTAGTGCAG”, “AGTTTTGATTGTTTTGAATACCTGGACTCTCTCACTATATCGGAGTCACCTAGTGCAG” is higher in binding signal: 25900 fluorescence intensity (a.u.) for the first, 27200 fluorescence intensity (a.u.) for the second.

Going from “CTAGATTATTATATTTTAGAACGGAGTTAGAATTATTATGCGGAGTCACCTAGTGCAG” to “CTCCATAAGATTATTGGTGATTATAGCTCCGATATATGAGCGGAGTCACCTAGTGCAG”, the binding signal falls from 13300 fluorescence intensity (a.u.) to 9140 fluorescence intensity (a.u.).

Compared with “ATTAGTTGATTTGCAAATAATTTCCACCGTGGCGTGACAACGGAGTCACCTAGTGCAG”, “ATGCGAGATTGGGTTAAAAGAGATGGAGACAAGGATTTTACGGAGTCACCTAGTGCAG” is lower in binding signal: 34900 fluorescence intensity (a.u.) for the first, 3430 fluorescence intensity (a.u.) for the second.

Going from “ACTGACATGTGGGCCCAATAATTTATTTTCATTATTTTACCGGAGTCACCTAGTGCAG” to “AAGCGTATCAATCAATCATCAGTGGTATACAAAATTTCCACGGAGTCACCTAGTGCAG”, the binding signal rises from 3160 fluorescence intensity (a.u.) to 35700 fluorescence intensity (a.u.).

Compared with “GTTCTGTAATTGCAATGCATATTGATACTGAGACTGACTCCGGAGTCACCTAGTGCAG”, “AGAATAGATAGAGTGGTTATATATGTTGATAATCTCGGATCGGAGTCACCTAGTGCAG” is lower in binding signal: 6650 fluorescence intensity (a.u.) for the first, 4250 fluorescence intensity (a.u.) for the second.

First: TCAATTAATCATACGCTAATGGTTAATCTCGTTTTACGTACGGAGTCACCTAGTGCAG
Second: TAACTAATCACTCGTTAATGACCTTTCCAGTTTTCCGTATCGGAGTCACCTAGTGCAG
The binding signal of the first is lower: 8160 fluorescence intensity (a.u.) for the first, 13800 fluorescence intensity (a.u.) for the second.

Going from “CTTAATTAATATAATCGGCAGGAGCTCACTGTTTGTTAACCGGAGTCACCTAGTGCAG” to “CTTGATTATGGCTTCAATTTCATCCGGTGGTATGAATGCCCGGAGTCACCTAGTGCAG”, the binding signal falls from 52800 fluorescence intensity (a.u.) to 7970 fluorescence intensity (a.u.).

Going from “ACTAACGGTAATCACATGAGAATCCCGACCTCCCCACCCCCGGAGTCACCTAGTGCAG” to “ATCTAATCAAACCGTAGTTAAATGCAAGTTTTATATAAACCGGAGTCACCTAGTGCAG”, the binding signal falls from 5700 fluorescence intensity (a.u.) to 4890 fluorescence intensity (a.u.).

First: TGGGATAATTGTGCTCTTACTCTTACTATCGATTTTAATTCGGAGTCACCTAGTGCAG
Second: GTCGATCTCATCTATTACTGCAATTTTCAATTAAAAGACTCGGAGTCACCTAGTGCAG
The binding signal of the first is higher: 5310 fluorescence intensity (a.u.) for the first, 4080 fluorescence intensity (a.u.) for the second.

Compared with “AAATTGACATAGCCCCTCTAGTATCCTGCGTGACGCTGATCGGAGTCACCTAGTGCAG”, “TAATAGAATAAATATTCAATCAATGCACTTAAGAGAAACTCGGAGTCACCTAGTGCAG” is higher in binding signal: 9000 fluorescence intensity (a.u.) for the first, 10900 fluorescence intensity (a.u.) for the second.

First: ATCTTCCCCATCATAAATGACTGGCCAATCATTCACAACTCGGAGTCACCTAGTGCAG
Second: ATAATAATAAATTTGAACGTGAATTACGCGTTAGATTCATCGGAGTCACCTAGTGCAG
The binding signal of the first is higher: 9130 fluorescence intensity (a.u.) for the first, 4550 fluorescence intensity (a.u.) for the second.

Going from “GTTAGGGTTTTCTTTTGATTGTCAGGGTTTTCTTTTGATTCGGAGTCACCTAGTGCAG” to “AATCAATCAGCAAGGAGGCATACGTGTATATGAACGAATTCGGAGTCACCTAGTGCAG”, the binding signal rises from 3960 fluorescence intensity (a.u.) to 12800 fluorescence intensity (a.u.).

Compared with “CACCATTATTGCCAATTATCCTTGCTTGCGTGGTAGAGTACGGAGTCACCTAGTGCAG”, “ATAAATTTATCTGTGTGTCCGTATATCCGATGTGACACGCCGGAGTCACCTAGTGCAG” is lower in binding signal: 26200 fluorescence intensity (a.u.) for the first, 11800 fluorescence intensity (a.u.) for the second.

Going from “TAAATAATGAGAACCAATCAGGCACAAAAGCATTGGATAACGGAGTCACCTAGTGCAG” to “GTTTGATTATTATTTGCGTTTTGCAGTGTCCGTGATCACACGGAGTCACCTAGTGCAG”, the binding signal rises from 12500 fluorescence intensity (a.u.) to 31600 fluorescence intensity (a.u.).

Compared with “ATATAATTGATAATAAATCAGGGCATGACATGTCACATATCGGAGTCACCTAGTGCAG”, “ATTGATGGAGGTTTGATTATTATGGTCCAGGTTCATGGTTCGGAGTCACCTAGTGCAG” is lower in binding signal: 56400 fluorescence intensity (a.u.) for the first, 44200 fluorescence intensity (a.u.) for the second.

Compared with “GGTCAATTACCGGTTGATCGAGCATCGTTTCCGAAGAGATCGGAGTCACCTAGTGCAG”, “TGGTTGGTCCATGATTATATATAATGAAACTGTGTGAAAACGGAGTCACCTAGTGCAG” is lower in binding signal: 14200 fluorescence intensity (a.u.) for the first, 4940 fluorescence intensity (a.u.) for the second.

Compared with “ATGATACCCATATTAATTAGGGTGTATATTATTTATTCTACGGAGTCACCTAGTGCAG”, “AGTGATAATTACAGTAATTACTGTTAATTATCATAATTAGCGGAGTCACCTAGTGCAG” is higher in binding signal: 3810 fluorescence intensity (a.u.) for the first, 45100 fluorescence intensity (a.u.) for the second.
